# In the supplement of paper PMC3334620:
# Whole data set: some 33,000 sequences, median “E-score (-0.5 to 0.5)” near -0.016, cut for the highest 2% near 0.31. Some of the results follow.
# Molecular target: Cst6 (UniProt P40535)
# Experiment: PBM E-score (8-mer binding enrichment) (E-score (-0.5 to 0.5)); higher = stronger / more preferred TF binding; most listed sequences are background and not binding sites
# Details: protein concentration: 200 nM; construct: GST-DNA-binding domain
# Outline: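 Using PURExpress in vitro transcription/translation, GST-tagged yeast transcription factors were made in full-length or DNA-binding-domain form. These were applied at about 100-200 nM to double-stranded universal all-10-mer Agilent arrays, and bound protein was detected with fluorescent anti-GST. Scans were normalised with masliner before the Universal PBM Analysis Suite assigned E-scores to ungapped eight-base words pooled with their reverse complements.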
row,Sequence,PBM E-score
1,GTGGTTTA,-0.0399
2,CAGAGCGA,-0.018
3,TTATTCAA,0.212
4,AGGGGCGA,-0.3
5,AGCAGTAA,0.103
6,AGTCAAAT,0.0827
7,ATGATAGG,0.00019
8,AGGGTCCA,-0.317
9,GCATACGC,-0.123
10,AGAATGCC,0.0564
11,TAGAAATA,0.141
12,AGTGAACA,-0.0145
13,TGGTCGAA,-0.142
14,GATTTGTA,0.161
15,CGCTTTAG,-0.0171
16,GTTGTTGA,0.239
17,GATCTATA,0.0388
18,ACCTGTCC,-0.238
19,CTGGCCAC,-0.122
20,CAAACCCG,-0.0771
21,AGTTAGCC,-0.129
22,GGAACTGA,-0.223
23,ACGGATAG,0.0654
24,ACGGCCGA,0.0667
25,CAGCGTCG,-0.0474

row,Sequence,PBM E-score
1,ATGTAAGG,0.152
2,CCAGAGCC,-0.0517
3,CGCTTCTC,-0.0501
4,GACTAATA,0.131
5,CCTATTAG,0.127
6,CCCCATAA,-0.161
7,CAGCATCG,-0.218
8,AGGGATTC,-0.2
9,CGCTGGCA,-0.0792
10,CCATATGC,0.00439
11,GCAGGACC,-0.307
12,CCACTATA,0.0189
13,GTTTCCGA,-0.0619
14,GCCGGAGC,-0.249
15,CCCATTCG,-0.0868
16,GAAATGAC,0.32
17,AATTTTGC,0.144
18,AAGCCCTG,-0.102
19,AATATGCG,0.124
20,CAACTTCC,0.0402
21,ACCTAGTG,-0.0571
22,AGAGACTA,-0.135
23,CACAGCTC,-0.0417
24,AAGATTGG,0.0246
25,GGCACGAC,-0.071

row,Sequence,PBM E-score
1,AAATTCTG,0.165
2,CGTCGTAA,0.0583
3,CACAGATC,-0.00896
4,AATGGGTC,-0.223
5,CCGATCCC,-0.415
6,GCGCCATA,-0.0316
7,AGTTTGCA,0.044
8,AAATGCAG,-0.141
9,TCTTGCCA,-0.0736
10,TCAGGGAA,-0.141
11,CATGTTTA,0.0329
12,CCCAGGCG,-0.0878
13,CTCTTCTC,-0.137
14,CATTCACA,0.12
15,ACTTGCTC,-0.198
16,ACCATAAT,0.148
17,ACCGACGT,0.036
18,ATCTACTG,0.0739
19,GCACGTTA,0.0802
20,CATGTGGG,-0.204
21,CACAGTGA,0.156
22,AACGGTTC,-0.125
23,AAAGACAA,0.274
24,ACCTGTTC,-0.0262
25,CCGGCAAA,-0.105

row,Sequence,PBM E-score
1,ACACCATC,0.0241
2,AGCACAAT,0.151
3,GTAATAAA,0.352
4,GTCAGTTA,0.106
5,AAGAGCAT,0.0708
6,ACATGGTG,0.165
7,ACGGGACC,-0.259
8,CTCGAGGA,-0.0361
9,ATGGCAAG,-0.0133
10,AGTATCAG,0.0172
11,AGCGCTTC,-0.0215
12,CCCGAACG,-0.136
13,CAAAATGG,-0.0268
14,TAACGGAA,0.0185
15,CACTTGGG,-0.126
16,ACCCGGGT,-0.262
17,CCCCCTTC,-0.415
18,CAACATTC,-0.102
19,TGCCACAA,0.0508
20,CGTTACGC,0.162
21,CTAAAAGC,-0.0998
22,AAATGTTC,0.0602
23,CTTTGAGA,0.22
24,ATTCCGCA,0.00802
25,AACCCATG,0.0101

row,Sequence,PBM E-score
1,GACCCGCC,-0.106
2,ATAAGTGA,0.231
3,AGCTGCCC,-0.113
4,AGCGTAGA,-0.253
5,AATCAGGA,-0.0589
6,GCCAATAC,-0.118
7,ATCACATG,0.109
8,ACAACGGA,0.0907
9,AAGCTCAC,-0.167
10,AGATGGCT,-0.049
11,CCCCTCGG,-0.176
12,ACCACGAC,-0.0633
13,GCTTGCGA,0.0401
14,ATTCATTG,0.0815
15,CTGATCCC,-0.173
16,CTACATAG,-0.0634
17,GGACAGAA,0.0124
18,GATTCCGA,0.0584
19,AAACTAGT,0.062
20,ATGAGCGC,0.0716
21,AAAGATTA,0.189
22,CGCTCTTC,-0.226
23,ATACGAGG,-0.202
24,AGCCGCGA,-0.0946
25,GGACGATA,-0.0175

row,Sequence,PBM E-score
1,CGTCGCGC,0.146
2,ACTCGCCG,0.0702
3,CATCCCGC,0.0488
4,GTACACCA,-0.0797
5,CAGACTCA,-0.0855
6,CTAGATCA,-0.124
7,ACCGTGAG,-0.167
8,TTAAGGAA,0.00952
9,ACACGAAG,0.163
10,AGGAAAGG,-0.155
11,CGTTCAAC,0.15
12,CTTGCTGC,-0.0883
13,GATGCAAC,0.074
14,AACTCGAA,0.105
15,AGCTCATC,-0.112
16,GACGGGCA,0.0343
17,CGCAGTAC,-0.0889
18,TCGCCTAA,-0.0175
19,CCTAACAG,0.00445
20,ACGTTATG,0.333
21,CATGGCTA,-0.0115
22,GCTTATTA,0.175
23,CTGATTCA,0.0585
24,CAGTTGGA,0.0316
25,GACTATCA,-0.104

row,Sequence,PBM E-score
1,ATCAAAAC,0.109
2,CGTCGATA,0.0681
3,AAAGGCTC,-0.0106
4,ACCTCTTA,0.117
5,TCTCACAA,0.132
6,AATGAGCT,0.0678
7,ATCGCAAC,0.0294
8,AATATGCA,0.00239
9,ATCAGACC,-0.0809
10,GATGTAGC,-0.00911
11,GGAAGTCC,-0.257
12,CGGTAAAG,-0.00808
13,CTGGACCC,-0.357
14,ACGATCTA,-0.0876
15,ACTCAAGC,-0.106
16,GATCGCAC,-0.00655
17,ACTGGTCG,-0.206
18,GACAGCAA,0.0708
19,ATGTTAAA,0.275
20,CATTGCCC,-0.241
21,ACGGATGG,0.0437
22,ACGAGGGC,-0.176
23,GCCTCATA,0.0539
24,AGTAATCC,0.0129
25,AGGGCGAG,-0.273

row,Sequence,PBM E-score
1,GAAGAGTC,-0.131
2,CCCTGATA,-0.123
3,AATAACGA,0.0145
4,CGATACCC,-0.166
5,AGTGTTCG,-0.00631
6,AGACAGGC,-0.22
7,AAGGTCCT,-0.228
8,ATACACGA,0.0465
9,CATACATA,0.27
10,AATCGAGT,-0.0583
11,CGACCACC,-0.192
12,GATGTTTA,0.202
13,ATAATAGA,0.216
14,CCACCACC,-0.122
15,AATTGAAT,0.157
16,CTACCACC,-0.274
17,GTGACCCA,0.0463
18,CGTGCACG,0.207
19,ATCCGCGG,0.0614
20,CAAGCAGG,-0.216
21,ACGGCCAA,0.0138
22,CGTCTCGC,-0.185
23,AGCAACTC,-0.166
24,AATCTGAA,0.12
25,AATCTAGC,-0.182

row,Sequence,PBM E-score
1,GCATCAGC,0.0302
2,TAGCATCA,0.271
3,TCCCAAAA,0.00905
4,CTCCGTTC,-0.0965
5,CACAGACC,-0.0766
6,CACATAGA,0.0738
7,ACAGATCA,0.0817
8,GGCGTGGA,-0.211
9,CACTCTCA,0.053
10,GAAATTAA,0.334
11,CCTTACGA,0.0697
12,ATCTCTAA,0.115
13,TCATAACA,0.311
14,ATTTATCC,0.252
15,TAAAATTA,0.283
16,AGAACCCG,-0.168
17,CATCGACC,0.00362
18,GAATGATA,0.278
19,ACGGCACT,0.352
20,AAAACTCA,0.198
21,CGTGTGAG,0.0162
22,TATGAAGA,0.19
23,GCATTTTA,0.183
24,AAGCAATT,0.188
25,AGATGTGA,0.242

row,Sequence,PBM E-score
1,GTACCAAC,0.0501
2,ATCGAAAC,0.128
3,GCCTAAAA,-0.123
4,CCTGCGCA,-0.26
5,CAGGCCCA,-0.255
6,ACGCTGAC,0.258
7,CTTACGCC,0.193
8,ATCGGGTA,-0.104
9,TACATCGA,-0.00243
10,CCAGTTCG,-0.0928
11,AGGAATCC,-0.132
12,GCTGTTAA,0.198
13,CAGTGACG,0.435
14,ACGCGTTG,0.0742
15,CCGTCCTA,-0.179
16,ACAGCTAT,-0.0639
17,ATCGTGAC,0.255
18,CAATTACC,0.138
19,ATTCTCGA,0.112
20,GCTTAGTA,0.0951
21,CCATAGTA,-0.157
22,AGTGAACG,-0.0226
23,CTGCTACC,-0.0843
24,ACTCCTTG,-0.0804
25,AAATACGA,0.167

row,Sequence,PBM E-score
1,ACGCTACC,-0.233
2,ATTTTATC,0.24
3,AGAGGCCC,-0.33
4,AGCGATTC,-0.0966
5,GCCAACCC,-0.22
6,GAGGTTAA,-0.146
7,CACGAGGC,0.184
8,CGGCAAAA,0.187
9,CGGTCGTA,-0.304
10,GCAAAAGC,0.0455
11,GGGGTCCA,-0.269
12,ACGAGGCA,0.171
13,CAAGGTAG,-0.2
14,GCCATCGA,-0.0885
15,CAGGAGGC,-0.0878
16,AACTAAAC,0.14
17,CGCCGGAG,-0.202
18,ATCTAAAT,0.14
19,CTTCGGTC,0.0701
20,CTTTCGCA,0.00133
21,AGTCTATC,-0.115
22,CCCTTAAG,-0.132
23,GGTGAACC,-0.0708
24,CTCGTGGC,-0.143
25,CCCCGATA,-0.262

row,Sequence,PBM E-score
1,AACGGCCT,-0.113
2,CCTAAGTA,-0.0781
3,AGTTAGAA,0.0267
4,CCGGTGTA,-0.241
5,CTAAAAGA,-0.0719
6,AATAACGC,0.0476
7,TATATTGA,0.135
8,ACAACATC,0.0511
9,ATCCGATC,0.154
10,GCTTATCA,0.0277
11,ATCGAATG,0.218
12,CTATGTAA,0.173
13,CGATCCAA,-0.127
14,AGCACTAT,-0.131
15,CACACTTA,0.178
16,GAGGAGTA,-0.019
17,GCAACGTA,0.209
18,AGTGGCTG,-0.122
19,AGGCCTGA,-0.0753
20,AAATATAC,0.145
21,CGACCAAA,0.205
22,CGTATGGA,0.0331
23,AACTAGTT,0.107
24,GTTCTCCA,-0.162
25,TAGGTGGA,-0.0365

row,Sequence,PBM E-score
1,CCATATAG,-0.11
2,GGATCATA,-0.0327
3,ATATACCA,0.0653
4,ATTAATGG,0.192
5,GCTGAGTA,-0.255
6,ACTCGTAC,-0.148
7,GGCTAACA,-0.0763
8,ATACCGAC,-0.0697
9,CCAACTGG,-0.132
10,ATTAACTA,0.137
11,GCCCGACA,0.00601
12,ACGATGAC,0.387
13,CGCGTCCG,-0.0105
14,AACCGATG,-0.0164
15,ATCTTCCC,0.0395
16,CCAAGATC,-0.12
17,GTCAATCA,0.192
18,AAATGTCT,-0.0179
19,AATGAGCC,-0.0483
20,AAAGCTGC,-0.0537
21,ACCGGGCA,-0.313
22,ATGCCTCG,0.317
23,CATAAGAG,0.0335
24,AGAAGCTC,-0.186
25,AACGGTGG,-0.293

row,Sequence,PBM E-score
1,AGAGAGGG,-0.278
2,CATGCAGC,-0.058
3,GGAGTGCC,-0.136
4,GTTCTAAA,-0.0506
5,CGGAGTTA,-0.0715
6,TCGAGGAA,-0.153
7,CCCCGAGA,-0.221
8,AACACTTG,-0.121
9,GCCTACAA,-0.0676
10,ACGTTTCC,-0.0167
11,CGTCCGCA,0.0467
12,GATGATTA,0.2
13,CGCTCCAA,-0.112
14,CGCTCGTC,-0.00654
15,ACTGCACG,-0.0749
16,GGTTCCAA,0.115
17,ACAACTAG,0.0101
18,AACAGCGC,-0.0479
19,AAGCCTCA,-0.11
